Consider six molecules from article PMC12136788.

Some of the results follow.

The labels stand for the following.
B1: chr19:10626314:10626315:-_ENSMUSG00000024667_ENSMUST00000059582|mus_hu|FALSE|FALSE (ssRNA)
RNA: GGGAGUUCUACAGUCCGACGAUCCAUACUGGAGAAAGCAGCCAAGGUGAGCACCUCAAGUAAAAGCUCUGAGCCACAGAAGAAGAGCAAGAUGCCAUUCAUGAUGGCUUCCAGGCGGAGUACGUAGGUCUGCAGCAGCAGGUACAACAGAGGAUUGAGCAUCA
B2: 94545830_94545950_330_CDS_ENSG00000089737_ENST00000330836|human|control|control (ssRNA)
RNA: GGGAGUUCUACAGUCCGACGAUCCUCCUCUUCUUCUGAAACAGCUUGUGCCUUUCUCUUGGGUGCUUCCUUUGAGAAGAGACUGGAGGGAUUCUUGGCAGGGGAGACCAACUGGUAAUCUGUCAAUUCCUCAAAGCACACCAACAACAGAGGAUUGAGCAUCA
B3: chr3:39104626:39104627:+_ENSG00000114742_ENST00000302313|hu_hu|motif|central (ssRNA)
RNA: GGGAGUUCUACAGUCCGACGAUCGUGCUGAUUGACACUCCAUAUUCUUAUGAUAGAGUCUCGACCGGCUGUGAAAAGUCGGUUUAGUGCUGGAUCCAGCUGCAGAGCAUUGACUCCAUUUCGGUUGUACUUCUCCACUUCAUCCAACAGAGGAUUGAGCAUCA
B4: chr9:82820052:82820053:-_ENSMUSG00000032253_ENSMUST00000034787|mus_mus|motif|central (ssRNA)
RNA: GGGAGUUCUACAGUCCGACGAUCACCAUGUCCUUGUCCUUCAAUCAUAUUGAAAUAAGAUCGAACUUUGACUCCUCUUGCGGGAUCCCACACUAUCACAUUUCCAUCAUGACCAGCAGAGAAGAGAACUCUAGGAUCAAAUGGCAACAGAGGAUUGAGCAUCA
B5: chr5:180277019:180277020:-_ENSG00000196670_ENST00000512132|hu_mus|FALSE|FALSE (ssRNA)
RNA: GGGAGUUCUACAGUCCGACGAUCAUGAAUCCUUUUAUGUUGUUCAAGGGCAGAACUGUAGUUGAAAGAUUUCUCACAAUAGCUGCAUUUAUAGGGCUUCUCCCCCAUGUGGAUUCCUUUGUGAUUUUUAAGGCUUGAGCGUGACAACAGAGGAUUGAGCAUCA
B6: chr12:39763582:39763583:-_ENSG00000139116_ENST00000544797|hu_mus|hu_hu_hu_mus_False|58_78 (ssRNA)
RNA: GGGAGUUCUACAGUCCGACGAUCCUCUAGGAACUGGGCAUUCACUUUGAAUUCAGGAGCAGGAAGCCCGUUUUUAAUUGCUAUGUGCUUUUUCUCAUCAAUACUCUUGAACAGGUGUCUAACAGCACGAGAGAUGAUGCCCUGCAACAGAGGAUUGAGCAUCA

For the assay, the target named is T1, UNK ZnF1-3 (human, UniProt Q9C0B0 31-174).
T1 sequence: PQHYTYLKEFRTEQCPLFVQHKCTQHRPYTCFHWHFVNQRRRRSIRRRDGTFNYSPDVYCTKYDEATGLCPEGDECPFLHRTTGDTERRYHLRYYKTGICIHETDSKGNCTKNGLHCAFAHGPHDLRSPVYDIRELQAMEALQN
Briefly: nsRBNS (natural sequence RNA bind-n-seq); RBNS binding buffer (assumed for nsRBNS): 25 mM Tris pH 7.5, 150 mM KCl, 3 mM MgCl2, 0.01% Triton X-100, 500 ug/ml BSA, 20 U/ml SUPERase-In, 4 C; UNK is unkempt and MSI1 is Musashi-1; names of the RNAs are library labels; protein concentration not given here; high values mean tight binding.
B1 yielded a binding signal of 2.3 enrichment R.
As for B2, the figure is 0.78 enrichment R; as for B3, 0.704 enrichment R.
Under B4 stands 1.1 enrichment R; under B5, 0.938 enrichment R; under B6, 1.27 enrichment R.
